Data as given in ChEMBL document CHEMBL4888484, “Replenishing the malaria drug discovery pipeline: Screening and hit evaluation of the MMV Hit Generation Library 1 (HGL1) against asexual blood stage Plasmodium falciparum ,using a nano luciferase reporter read-out” (2022).
The campaign covered roughly 150,000 compounds. About 540 (0.36%) showed an effect of 50% or more. This is one part of the list.

Test system: Plasmodium falciparum
Assay: Primary screen in NF54 nanoGlo assay, in single point, at 2uM, 72h; a lower Z score goes with more inhibition
Assay type: functional, Erythrocyte
Details: timepoint 72 hour

Row | Structure (SMILES) | % Inhibition [%] | Z score
1 | O=C1NCCCC[C@@H]1Cc1nc(-c2cnc3ccccn23)no1 | -13 | 1.51
2 | Cc1cc(O)cc(=O)n1CCc1nnc2ccccn12 | -9 | 1.18
3 | CCOc1cc(-c2nnc(NC(=O)c3cccc4ccccc34)o2)cc(OCC)c1OCC | 12 | -1.61
4 | Cn1cc(-c2ccc(C(=O)N3CCOCC3)o2)cn1 | -10 | 1.78
5 | Cc1cc([C@@H]2CCCCN2Cc2nc3ccccc3[nH]2)no1 | 4 | -0.56
6 | O=C(CO[C@H](c1ccccc1)C(F)(F)F)N1CCCNCC1 | -14 | 1.74
7 | CC1CN(C(CN=C(N)Nc2ccccn2)c2cccs2)CCO1 (stereo not drawn) | -2 | 0.35
8 | O=C(C[C@@H]1CCN2C[C@@H]1/C=C\COc1ccccc1CN(C(=O)C1CCC1)CC2=O)N1CCOCC1 | 2 | -0.27
9 | CCN1CC(=O)N[C@H]2CN(C(=O)c3cn[nH]c3)CC[C@@H]2OCc2cccc(c2)Oc2cc(OC(C)C)cc(c2)C1=O | -12 | 2.48
10 | Cc1cc(C)c(C#N)c(-c2ccc(C(=O)N3CCC(N)CC3)cc2)n1 | 6 | -1.13
11 | COc1cc(CN2C[C@@H](CO)[C@H](C(=O)NC3CC3)C2)ccc1F | -5 | 0.72
12 | CC(C)N(C(C)C)S(=O)(=O)c1ccc(O)nc1 | -19 | 2.4
13 | Cc1cc(C)c(C(=O)N[C@@H]2CCC[C@@H]2Oc2cn[nH]c2)s1 | -6 | 0.98
14 | COc1cc(C(=O)Nc2c(C(=O)N3CCOCC3)oc3ccccc23)ccc1OC(F)F | -7 | 0.81
15 | Cc1ccc(-c2nc(CCNC(=O)c3ccc(S(=O)(=O)N4CCOCC4)cc3)n[nH]2)cc1 | -17 | 3.25
16 | Cc1ccc(NC(=O)Nc2ccc3nc4n(c(=O)c3c2)CCCC4)c(C)c1 | 5 | -0.58
17 | O=C1NC[C@@]2(CCCN(C(=O)Cc3ccc(Cl)c(Cl)c3)C2)O1 | 2 | -0.43
18 | CCN1CCC(Nc2ccc(-c3cc[nH]n3)cc2)CC1 | -8 | 1.6
19 | C[C@@H](Cn1cncn1)NC(=O)CN1CCOc2ccc(Cl)cc21 | -10 | 1.49
20 | C[C@@H](C(=O)N1CCOCC1)N1CCN(c2ncccc2F)CC1 | -6 | 0.56
21 | CCC(C(=O)N1CCN(C2=Nc3ccccc3Oc3c(OC)cccc32)CC1C)c1ccccc1 (stereo not drawn) | -13 | 1.18

Row | Structure (SMILES) | % Inhibition [%] | Z score
22 | CCOc1ncccc1C(=O)NC[C@@H](c1ccco1)N1CCCC1 | 10 | -1.95
23 | CC[C@]1(N2CCN(C(=O)c3ccc(F)c(Cl)c3)CC2)CCN(S(C)(=O)=O)C1 | 12 | -1.21
24 | O=C(Nc1ccncc1)NC1CCOC1c1ccc(Cl)cc1 (stereo not drawn) | -2 | 0.41
25 | COc1ccc(CCn2nc(C(=O)N(C)C)c3c2CCN(C(=O)c2[nH]nc4c2CCCC4)C3)cc1 | -10 | 1.34
26 | CC[C@@H](CO)N(Cc1ccccc1C)Cc1[nH]cnc1C | 0 | 0.06
27 | Cc1cn2nc(C(=O)NCCc3ccc(S(N)(=O)=O)cc3)cc2c(=O)[nH]1 | -18 | 3.38
28 | Cc1nc(N)nc(C)c1CC(=O)N1CC[C@](C)(O)[C@H](C)C1 | -7 | 1.27
29 | COC(=O)N1CCC[C@H](NC(=O)C(=O)Nc2ccccc2)C1 | -14 | 1.75
30 | Fc1ccc(N2CCN(c3nc4c(c(C(F)(F)F)n3)CCCCC4)CC2)cc1 | 24 | -2.37
31 | O[C@H](COc1ccccc1)Cn1cc(-c2ccccc2F)cn1 | -6 | 0.81
32 | C[C@H]1CN(C)c2ccccc2CN1C(=O)NCc1nc2ccccc2n1C1CC1 | -11 | 1.82
33 | O=C(Nc1ccc2c(c1)OCCCO2)c1ccc(S(=O)(=O)N2CCCC2)cc1 | -21 | 3.31
34 | O=C(C1CNCCO1)N1CCCC1c1ccc(Cl)cc1 (stereo not drawn) | 4 | -0.55
35 | O=C(Cc1ccccc1)N(Cc1cccnc1)C1(C(=O)Nc2ccc(N3CCOCC3)cc2)CCC2Cc3ccccc3CC2C1 (stereo not drawn) | 20 | -2.49
36 | COc1ccc(NS(=O)(=O)c2ccc(NC(=O)c3cc(C)n(-c4cccc(C)c4)c3C)cc2)cc1 | 22 | -2.84
37 | CC(c1nccs1)N(C)C1CCC(=O)N(Cc2cc3c(cc2Cl)OCO3)CC1 (stereo not drawn) | -10 | 1.3
38 | COc1cc(-n2cnnn2)c(Cl)cc1C(=O)N1CCOCC1 | 0 | 0.08
39 | Cc1ccc(Cn2c(C)c(N3CCOCC3)c(C)c2C(=O)N2CCN(c3ccccc3F)CC2)cc1 | -13 | 1.25
40 | COc1ccc(CCNC(=O)CN2C[C@H]3CC[C@H]2C3)cc1 | 2 | -0.2
41 | Cn1cccc(C(=O)NCC2CCN(c3nc4ccccc4o3)CC2)c1=O | -9 | 1.33
42 | Cc1cc(C(=O)NCCN2CCOCC2)nc(C)n1 | -14 | 2

Row | Structure (SMILES) | % Inhibition [%] | Z score
43 | COC(=O)C1(CNC(=O)c2cscn2)CCCCC1 | -6 | 0.93
44 | C[C@H]1CC(=O)Nc2ccccc2N1C(=O)CNc1ccccc1CN1CCC(CO)CC1 | -6 | 0.89
45 | Cn1nc2cccc(NC(=O)N3CCS(=O)(=O)CC3)c2n1 | -1 | 0.16
46 | CC1CC1c1nc(C#N)c(N2CCOCC2)o1 (stereo not drawn) | -6 | 1.07
47 | CN(C[C@H]1CCCN1Cc1ccncc1)C(=O)OC(C)(C)C | -13 | 1.3
48 | O=S(=O)(C1COC1)N1CCO[C@H](c2cccs2)C1 | -12 | 1.57
49 | COc1ccccc1C(=O)N1CCCC[C@H]1c1nnc(-c2ccncc2)[nH]1 | -7 | 1.32
50 | O=S(=O)(C1CC1)N1CC[C@H](O)C(F)(F)C1 | -5 | 0.85
51 | Cc1cc(-n2cc3c(c2-c2ccc(F)cc2)c(=O)n(C)c(=O)n3C)no1 | 33 | -3.79
52 | COc1cccc(CNC(=O)c2cnn3c4c(cnc23)C[C@@H](C)CC4)c1 | 0 | 0.03
53 | COCCC(=O)NC[C@@]12CCCC=C1NC(=O)CC2 | -9 | 1.23
54 | Cc1ccc(-c2cn[nH]c2[C@H]2CCCN(C(=O)c3snnc3C)C2)cc1 | 11 | -1.54
55 | O=C(c1ccc(-c2ccc3occc3c2)cc1)N1C[C@H](CO)[C@@H](CO)C1 | -9 | 1.19
56 | CCn1nncc1C(=O)NC1CCC(F)C1 (stereo not drawn) | -4 | 0.59
57 | CN(CCc1ccccc1F)Cc1nc(CS(C)(=O)=O)no1 | -8 | 0.72
58 | Cc1nc(CCNC(=O)[C@H]2CC(=O)N(c3ccccc3Br)C2)cs1 | -5 | 0.84
59 | CC1COCCN1C(=O)C1C2CCCC21 (stereo not drawn) | 28 | -3.14
60 | CCn1c(=O)c2sc(N3CCCC3)nc2n(CC(=O)Nc2cccc(OC)c2)c1=O | -19 | 1.64
61 | CCC(C)(C)NC(=O)Cn1ncc(N(C)C)cc1=O | -1 | 0.11
62 | CC(C)[C@H](O)C1(CNCc2c[nH]nc2-c2cccs2)CC1 | 4 | -0.62
63 | CC(C)c1scnc1C(=O)N[C@@H](CO)C1CCCC1 | 11 | -1.09

Row | Structure (SMILES) | % Inhibition [%] | Z score
64 | CC(=O)NCC(C)(C)Cc1cccc(Cl)c1 | 32 | -3.63
65 | CCC(CC)NC(=O)[C@@H]1CCCCC(=O)N1Cc1cccc(OC)c1 | 5 | -0.59
66 | CC(C)(C)C(=O)NCCCN1CCOCC1 | 2 | -0.29
67 | CC[C@H](OC1CCCCC1)c1nc(-c2cc(O)ncn2)no1 | 0 | 0.03
68 | CN1C(=O)c2ccc(NC(=O)Nc3ccccc3)cc2C1=O | -12 | 1.4
69 | Cc1cc(C(=O)N2CCOC[C@H](Oc3ccc(C(F)(F)F)cc3)C2)c(C)o1 | 11 | -1.24
70 | COc1cccc(C(=O)N2CCc3c(c(-c4nncn4C(C)C)nn3C)C2)c1 | 7 | -0.92
71 | CO[C@@H](C)CCC(=O)Nc1ccnc(C(C)(C)C)n1 | -10 | 1.39
72 | CCCCCN/C(=N\C(=O)c1ccccc1Cl)OCC(C)C | 3 | -0.48
73 | O=S(=O)(Cc1ccccc1F)N1CCCc2ccccc21 | -8 | 1.59
74 | Cc1nc(NC(=O)[C@H](C)NCc2nnc3n2CCCC3)sc1C | -18 | 2.74
75 | Cc1noc(C)c1S(=O)(=O)NCc1ccsc1 | -9 | 1.18
76 | Cc1cc(-c2c(-c3ccccc3)ncn2C[C@@H](c2ccc(C)o2)N(C)C)[nH]n1 | -3 | 0.35
77 | Cc1nc(NC(=O)N2CCOC(C)(C)[C@@H]2C)ccc1Br | 12 | -2.22
78 | COc1ccncc1CNC(=O)N1Cc2ccccc2OC[C@@H]1C | 27 | -3.01
79 | O=C1C(=O)N(CCS(=O)(=O)c2ccccc2)c2ccccc21 | -6 | 0.81
80 | CCC(=O)N(C)c1ccccc1-c1nc(-c2ccc(Br)o2)no1 | 10 | -1.27
81 | CC(CNC1CCCCC1S(C)(=O)=O)c1ccsc1 (stereo not drawn) | -3 | 0.42
82 | CCOc1cc(N[C@H]2CCn3ccnc32)ccc1OC | -12 | 2.28
83 | CCOc1ccc([C@H](C)NC(=O)CCn2cnc3c(cnn3C)c2=O)cc1OCC | -16 | 1.63
84 | Cc1noc(C)c1S(=O)(=O)Nc1ncccc1-c1ccccc1 | 4 | -0.45
